Test results as given in PubChem BioAssay AID588342 (National Center for Advancing Translational Sciences (NCATS), 2011).
Hit rate of the full screen: of about 360,000 compounds, about 25,000 (6.9%) were called active. The inconclusive results got no clear call from the source; some entries with a clear call stand among them for comparison. Calls follow the shape of the dose curve; as a rule, active = well fitted inhibition curve with a large enough effect; inconclusive = small, poorly fitted or top-dose-only effect; inactive = flat fitted curve, though single readings scatter. Where the call is inconclusive, the potency comes from a doubtful curve fit.

These compounds were tested against Luciferin 4-monooxygenase (Photinus pyralis) (UniProt P08659) (assay: qHTS profiling assay for firefly luciferase inhibitor/activator using purifed enzyme and Km concentrations of substrates (counterscreen for miR-21 project)). Conditions: purified FLuc, luminescence inhibition; series mostly up to 57.5 µM.
Method in brief: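 Purified P. pyralis luciferase, 10 nM final, with Km-level 10 uM D-luciferin and 10 uM ATP in 50 mM Tris acetate pH 7.5, 10 mM Mg acetate, 0.01% Tween-20, 0.05% BSA; 6-point qHTS titration about 60 µM downward; luminescence read.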
Also: nearly all actives have a fitted effect of over 55% in size.
Potency is read from the fitted curve at half-maximal effect; tags tell the direction and shape of the fitted curve.

UniProt P08659, sequence (P08659 whole entry, looked up): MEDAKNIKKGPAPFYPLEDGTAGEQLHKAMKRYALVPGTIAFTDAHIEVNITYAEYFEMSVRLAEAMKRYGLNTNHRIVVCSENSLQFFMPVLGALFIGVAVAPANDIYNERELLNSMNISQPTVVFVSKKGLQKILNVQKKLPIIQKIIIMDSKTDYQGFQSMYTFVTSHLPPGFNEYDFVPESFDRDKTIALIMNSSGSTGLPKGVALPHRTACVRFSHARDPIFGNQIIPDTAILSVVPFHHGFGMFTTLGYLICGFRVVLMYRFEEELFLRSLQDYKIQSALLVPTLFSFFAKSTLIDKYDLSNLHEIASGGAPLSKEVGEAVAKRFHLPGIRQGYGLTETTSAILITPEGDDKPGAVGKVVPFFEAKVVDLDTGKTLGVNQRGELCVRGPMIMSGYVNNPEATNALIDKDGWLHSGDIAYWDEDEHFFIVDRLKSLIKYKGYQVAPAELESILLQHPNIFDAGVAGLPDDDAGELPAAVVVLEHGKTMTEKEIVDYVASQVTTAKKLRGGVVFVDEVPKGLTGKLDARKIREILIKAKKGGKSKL

SMILES | Potency
CCC(C)NC(=O)c1ccc(C2SCC(=O)N2Cc2ccccc2)cc1 (configuration not stated) | inconclusive: 37.9 µM [inhibitor, partial curve, poor fit]
COc1ccc(/C=C2/C(=O)ON=C2C)cc1Cl | inconclusive: 23.9 µM [inhibitor, partial curve]
O=[N+]([O-])c1ccc(/C=C/C2=NN(c3ccccc3)C(c3ccco3)C2)cc1 (configuration not stated) | inconclusive: 37.9 µM [inhibitor, partial curve, poor fit]
Cc1ccc(C(=O)NC(Cc2c[nH]c3ccccc23)C(=O)O)cc1 (configuration not stated) | inconclusive: 21.3 µM [inhibitor, single point]
Cc1nnc(N2C(=O)C(O)=C(C(=O)c3ccco3)C2c2ccc(C(C)(C)C)cc2)s1 (configuration not stated) | inconclusive: 21.3 µM [inhibitor, single point]
NNC(=O)c1cc(-c2ccc(N)cc2)nc2ccc(Br)cc12 | inconclusive: 21.3 µM [inhibitor, partial curve, poor fit]
CCCCn1c(N)c(N(CCOC)C(=O)c2cc(-c3ccc(C)cc3)nc3ccccc23)c(=O)[nH]c1=O | inconclusive: 30.1 µM [inhibitor, partial curve, poor fit]
Cn1c2ccc(F)cc2c2nc3ccccc3nc21 | inconclusive: 8.49 µM [inhibitor, partial curve, poor fit]
Cc1ccc(NC(=O)Cc2ccc(NC(=O)N3CCCCc4ccccc43)cc2)cc1Cl | inconclusive: 3.38 µM [inhibitor, partial curve, poor fit]
Cc1c(CNCC(C)c2ccccc2)c(C(=O)O)c(C)n1Cc1ccccc1 (configuration not stated) | inactive
CC1CCC/C(=N\Nc2ccc(Cl)c(C(=O)O)c2)C1 (configuration not stated) | inconclusive: 26.9 µM [inhibitor, single point]
CCSc1ncc(/C=N/Nc2ccccc2)n1C | active: 19 µM
C/C(=N\NC(=O)c1ccc2c(c1)OCO2)c1ccc(C(=O)O)s1 | inconclusive: 21.3 µM [inhibitor, partial curve]
CC(=O)c1ccc(NC(=O)Nc2ccc3snnc3c2)cc1 | inconclusive: 26.9 µM [inhibitor, partial curve, poor fit]
NC(=O)c1ccsc1NC(=O)CS(=O)(=O)c1ccccc1 | inconclusive: 37.9 µM [inhibitor, single point]
Cc1nc2ccc(C(=O)O)cc2[nH]1 | inconclusive: 23.9 µM [inhibitor, partial curve]
COc1cc(C(=O)N/N=C/c2cn(Cc3cccc(F)c3)c3ccccc23)ccc1O | inconclusive: 19 µM [inhibitor, partial curve]
